# This is one part of the list.
# B1: F17-L (Escherichia coli) (protein)
# chain: GPDDYVPSQIAVNTSTLPGVVIGPADAHTYPRVIGELAGTSNQYVFNGGAIALMRGKFTPALPKIGSITYTFHQGNSRDSSDFDIYDIGVSGLGIIIGMAGYWPATPLVPINSSGIYIDPVGANTNPNTYNGATASFGARLFVAFVATGRLPNGYITIPTRQLGTILLEAKRTSLNNKGLTAPVMLNGGRIQVQSQTHHHHHH
# Tests used:
# Test in all cases: glycan array binding signal (z-score within array); higher = stronger binding
# Details in all cases: glycan notation: IUPAC condensed, linker removed
# [1] = molecular target: GlcNAc(b1-3)Gal(b1-4)GlcNAc(b1-3)GalNAc
# Procedure, shortened: (§1)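 Glycan array data were curated from 3228 arrays in the Consortium for Functional Glycomics database and kept only where the protein sequence was available. Glycan names were converted to IUPAC-condensed notation, and columns mapping to the same glycan were averaged. The binding signal is a within-array Z-score, averaged across arrays of the same protein sequence at different concentrations or buffers and across linkers. Negative Z-scores can be read as non-binding.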
# [2] = molecular target: GlcNAc(b1-3)Gal(b1-4)GlcNAc(b1-3)[GlcNAc(b1-3)Gal(b1-4)GlcNAc(b1-3)]GalNAc
# Procedure, shortened: as §1
# [3] = molecular target: GlcNAc(b1-3)Gal(b1-4)GlcNAc(b1-6)[Gal(b1-3)]GalNAc
# Procedure, shortened: as §1
# [4] = molecular target: GlcNAc(b1-3)Gal(b1-4)GlcNAc(b1-6)[GlcNAc(b1-3)Gal(b1-3)]GalNAc
# Procedure, shortened: as §1
# [5] = molecular target: GlcNAc(b1-3)Gal(b1-4)GlcNAc(b1-6)[GlcNAc(b1-3)]Gal(b1-4)GlcNAc
# Procedure, shortened: as §1
# GlcNAc(b1-3)GalNAc = molecular target: GlcNAc(b1-3)GalNAc
# Procedure, shortened: as §1
# GlcNAc(b1-3)Man = molecular target: GlcNAc(b1-3)Man
# Procedure, shortened: as §1
# [6] = molecular target: GlcNAc(b1-3)[GlcNAc(b1-4)][GlcNAc(b1-6)]GlcNAc
# Procedure, shortened: as §1
# [7] = molecular target: GlcNAc(b1-3)[GlcNAc(b1-6)]Gal(b1-4)GlcNAc
# Procedure, shortened: as §1
# [8] = molecular target: GlcNAc(b1-3)[GlcNAc(b1-6)]GalNAc
# Procedure, shortened: as §1
# [9] = molecular target: GlcNAc(b1-4)Gal(b1-4)GlcNAc
# Procedure, shortened: as §1
# GlcNAc(b1-4)GlcNAc = molecular target: GlcNAc(b1-4)GlcNAc
# Procedure, shortened: as §1
# [10] = molecular target: GlcNAc(b1-4)GlcNAc(b1-4)GlcNAc
# Procedure, shortened: as §1
# [11] = molecular target: GlcNAc(b1-4)GlcNAc(b1-4)GlcNAc(b1-4)GlcNAc(b1-4)GlcNAc
# Procedure, shortened: as §1
# [12] = molecular target: GlcNAc(b1-4)GlcNAc(b1-4)GlcNAc(b1-4)GlcNAc(b1-4)GlcNAc(b1-4)GlcNAc
# Procedure, shortened: as §1
# [13] = molecular target: GlcNAc(b1-4)[GlcNAc(b1-6)]GalNAc
# Procedure, shortened: as §1
# [14] = molecular target: GlcNAc(b1-6)Gal(b1-4)GlcNAc
# Procedure, shortened: as §1
# GlcNAc(b1-6)GalNAc = molecular target: GlcNAc(b1-6)GalNAc
# Procedure, shortened: as §1
# [15] = molecular target: GlcNAc6S(b1-3)Gal(b1-4)GlcNAc
# Procedure, shortened: as §1
# Kdn(a2-3)Gal(b1-3)GalNAc = molecular target: Kdn(a2-3)Gal(b1-3)GalNAc
# Procedure, shortened: as §1
# Kdn(a2-3)Gal(b1-3)GlcNAc = molecular target: Kdn(a2-3)Gal(b1-3)GlcNAc
# Procedure, shortened: as §1
# Kdn(a2-3)Gal(b1-4)Glc = molecular target: Kdn(a2-3)Gal(b1-4)Glc
# Procedure, shortened: as §1
# Kdn(a2-3)Gal(b1-4)GlcNAc = molecular target: Kdn(a2-3)Gal(b1-4)GlcNAc
# Procedure, shortened: as §1
# [16] = molecular target: Kdn(a2-3)Gal(b1-4)[Fuc(a1-3)]GlcNAc
# Procedure, shortened: as §1
# Kdn(a2-6)Gal(b1-4)GlcNAc = molecular target: Kdn(a2-6)Gal(b1-4)GlcNAc
# Procedure, shortened: as §1
# [17] = molecular target: Man(a1-2)Man(a1-2)Man(a1-3)Man
# Procedure, shortened: as §1
# [18] = molecular target: Man(a1-2)Man(a1-2)Man(a1-6)[Man(a1-3)]Man
# Procedure, shortened: as §1
# Man(a1-2)Man(a1-3)Man = molecular target: Man(a1-2)Man(a1-3)Man
# Procedure, shortened: as §1
# [19] = molecular target: Man(a1-2)Man(a1-3)[Man(a1-2)Man(a1-6)]Man
# Procedure, shortened: as §1
# [20] = molecular target: Man(a1-2)Man(a1-3)[Man(a1-2)Man(a1-6)]Man(a1-6)[Man(a1-2)Man(a1-2)Man(a1-3)]Man
# Procedure, shortened: as §1
# [21] = molecular target: Man(a1-2)Man(a1-3)[Man(a1-2)Man(a1-6)]Man(a1-6)[Man(a1-2)Man(a1-2)Man(a1-3)]Man(b1-4)GlcNAc(b1-4)GlcNAc
# Procedure, shortened: as §1
# [22] = molecular target: Man(a1-2)Man(a1-3)[Man(a1-6)]Man(a1-6)[Man(a1-2)Man(a1-3)]Man(b1-4)GlcNAc(b1-4)GlcNAc
# Procedure, shortened: as §1
# [23] = molecular target: Man(a1-2)Man(a1-6)[Man(a1-3)]Man(a1-6)[Man(a1-2)Man(a1-2)Man(a1-3)]Man
# Procedure, shortened: as §1
# [24] = molecular target: Man(a1-2)Man(a1-6)[Man(a1-3)]Man(a1-6)[Man(a1-2)Man(a1-2)Man(a1-3)]Man(b1-4)GlcNAc(b1-4)GlcNAc
# Procedure, shortened: as §1
# Man(a1-3)[Man(a1-6)]Man = molecular target: Man(a1-3)[Man(a1-6)]Man
# Procedure, shortened: as §1
# [25] = molecular target: Man(a1-3)[Man(a1-6)]Man(a1-6)[Man(a1-2)Man(a1-3)]Man(b1-4)GlcNAc(b1-4)GlcNAc
# Procedure, shortened: as §1
# [26] = molecular target: Man(a1-3)[Man(a1-6)]Man(a1-6)[Man(a1-3)]Man
# Procedure, shortened: as §1
# [27] = molecular target: Man(a1-3)[Man(a1-6)]Man(a1-6)[Man(a1-3)]Man(b1-4)GlcNAc(b1-4)GlcNAc
# Procedure, shortened: as §1
# [28] = molecular target: Man(a1-3)[Man(a1-6)]Man(b1-4)GlcNAc(b1-4)GlcNAc
# Procedure, shortened: as §1
# [29] = molecular target: Man(a1-3)[Man(a1-6)]Man(b1-4)GlcNAc(b1-4)[Fuc(a1-6)]GlcNAc
# Procedure, shortened: as §1
# Man(a1-6)Man = molecular target: Man(a1-6)Man
# Procedure, shortened: as §1
# Man(b1-4)GlcNAc = molecular target: Man(b1-4)GlcNAc
# Procedure, shortened: as §1
# MurNAc(b1-4)GlcNAc = molecular target: MurNAc(b1-4)GlcNAc
# Procedure, shortened: as §1
# Neu5Ac(a2-3)Gal = molecular target: Neu5Ac(a2-3)Gal
# Procedure, shortened: as §1
# [30] = molecular target: Neu5Ac(a2-3)Gal(b1-3)GalNAc
# Procedure, shortened: as §1
binder,measurement,setting,value
B1,glycan array binding signal (z-score),[1],-0.006
same,glycan array binding signal (z-score),[2],-0.18
same,glycan array binding signal (z-score),[3],-0.163
same,glycan array binding signal (z-score),[4],-0.151
same,glycan array binding signal (z-score),[5],-0.185
same,glycan array binding signal (z-score),GlcNAc(b1-3)GalNAc,-0.035
same,glycan array binding signal (z-score),GlcNAc(b1-3)Man,-0.163
same,glycan array binding signal (z-score),[6],-0.02
same,glycan array binding signal (z-score),[7],-0.228
same,glycan array binding signal (z-score),[8],-0.17
same,glycan array binding signal (z-score),[9],-0.095
same,glycan array binding signal (z-score),GlcNAc(b1-4)GlcNAc,-0.098
same,glycan array binding signal (z-score),[10],-0.131
same,glycan array binding signal (z-score),[11],-0.173
same,glycan array binding signal (z-score),[12],-0.065
same,glycan array binding signal (z-score),[13],-0.154
same,glycan array binding signal (z-score),[14],0.019
same,glycan array binding signal (z-score),GlcNAc(b1-6)GalNAc,-0.174
same,glycan array binding signal (z-score),[15],-0.074
same,glycan array binding signal (z-score),Kdn(a2-3)Gal(b1-3)GalNAc,-0.039
same,glycan array binding signal (z-score),Kdn(a2-3)Gal(b1-3)GlcNAc,-0.147
same,glycan array binding signal (z-score),Kdn(a2-3)Gal(b1-4)Glc,-0.136
same,glycan array binding signal (z-score),Kdn(a2-3)Gal(b1-4)GlcNAc,-0.108
same,glycan array binding signal (z-score),[16],-0.034
same,glycan array binding signal (z-score),Kdn(a2-6)Gal(b1-4)GlcNAc,-0.182
same,glycan array binding signal (z-score),[17],-0.074
same,glycan array binding signal (z-score),[18],-0.087
same,glycan array binding signal (z-score),Man(a1-2)Man(a1-3)Man,-0.169
same,glycan array binding signal (z-score),[19],-0.153
same,glycan array binding signal (z-score),[20],-0.195
same,glycan array binding signal (z-score),[21],-0.086
same,glycan array binding signal (z-score),[22],-0.19
same,glycan array binding signal (z-score),[23],-0.149
same,glycan array binding signal (z-score),[24],-0.168
same,glycan array binding signal (z-score),Man(a1-3)[Man(a1-6)]Man,-0.047
same,glycan array binding signal (z-score),[25],-0.152
same,glycan array binding signal (z-score),[26],-0.029
same,glycan array binding signal (z-score),[27],-0.122
same,glycan array binding signal (z-score),[28],-0.034
same,glycan array binding signal (z-score),[29],-0.176
same,glycan array binding signal (z-score),Man(a1-6)Man,-0.102
same,glycan array binding signal (z-score),Man(b1-4)GlcNAc,-0.122
same,glycan array binding signal (z-score),MurNAc(b1-4)GlcNAc,4.16
same,glycan array binding signal (z-score),Neu5Ac(a2-3)Gal,-0.099
same,glycan array binding signal (z-score),[30],-0.111
